# Laboratory results: publication PMC4336329 (PLoS ONE, 2015)
# Hit rate of the full screen: of about 310,000 compounds, about 2,200 (0.71%) showed an effect of 50% or more. Effects have a minus sign here. The list shows a part of the results.
# Biological target: human ether-à-go-go-related gene (hERG) potassium channel (human, UniProt Q12809)
# Assay: primary screen, population patch clamp on CHO cells stably expressing hERG
# Sequence of human ether-à-go-go-related gene (hERG) potassium channel (Q12809 whole entry, looked up): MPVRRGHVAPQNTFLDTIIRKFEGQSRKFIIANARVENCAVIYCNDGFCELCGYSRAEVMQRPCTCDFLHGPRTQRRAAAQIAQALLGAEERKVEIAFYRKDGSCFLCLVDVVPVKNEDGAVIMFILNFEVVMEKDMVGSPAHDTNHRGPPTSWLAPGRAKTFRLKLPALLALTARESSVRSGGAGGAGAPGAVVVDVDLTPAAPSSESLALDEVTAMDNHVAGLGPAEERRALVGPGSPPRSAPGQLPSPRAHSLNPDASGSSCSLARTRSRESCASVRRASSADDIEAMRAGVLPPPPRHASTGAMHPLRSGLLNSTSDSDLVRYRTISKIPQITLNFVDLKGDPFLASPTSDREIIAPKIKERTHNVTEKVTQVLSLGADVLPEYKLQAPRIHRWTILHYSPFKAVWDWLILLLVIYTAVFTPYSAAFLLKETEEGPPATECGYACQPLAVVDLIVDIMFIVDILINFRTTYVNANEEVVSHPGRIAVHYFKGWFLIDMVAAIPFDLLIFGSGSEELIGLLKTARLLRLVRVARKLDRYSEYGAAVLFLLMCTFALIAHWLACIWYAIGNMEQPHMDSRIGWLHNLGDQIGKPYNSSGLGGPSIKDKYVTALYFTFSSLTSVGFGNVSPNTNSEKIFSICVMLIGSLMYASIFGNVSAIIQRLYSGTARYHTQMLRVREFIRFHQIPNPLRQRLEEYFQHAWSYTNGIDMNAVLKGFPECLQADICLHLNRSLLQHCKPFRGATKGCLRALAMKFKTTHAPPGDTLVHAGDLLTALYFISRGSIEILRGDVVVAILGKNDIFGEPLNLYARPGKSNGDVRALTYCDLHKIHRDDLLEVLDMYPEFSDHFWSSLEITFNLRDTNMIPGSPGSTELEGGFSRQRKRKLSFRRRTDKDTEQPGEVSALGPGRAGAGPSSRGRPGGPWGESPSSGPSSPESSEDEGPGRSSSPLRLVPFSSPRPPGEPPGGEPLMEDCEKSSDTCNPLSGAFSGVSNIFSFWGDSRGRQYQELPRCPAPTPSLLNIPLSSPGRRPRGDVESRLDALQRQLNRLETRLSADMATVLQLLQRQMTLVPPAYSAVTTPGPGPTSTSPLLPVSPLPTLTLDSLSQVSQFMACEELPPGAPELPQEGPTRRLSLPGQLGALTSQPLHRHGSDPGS
row,SMILES,"hERG current change (%, negative = inhibition) at 1uM"
1,CC(NC(=O)CSc1nnc(COc2ccccc2)o1)c1ccccc1 (stereo not shown),3.79%
2,CCOc1ccccc1C(=O)N[C@H](C(=O)Nc1nc2c(s1)CCCC2)C(C)C,17.4%
3,Cn1c(COc2ccccc2)nnc1SCC(=O)Nc1ccc(N2CCOCC2)cc1,6.93%
4,O=C(NCc1ccc2c(c1)OCO2)c1cccc(S(=O)(=O)N2CCOCC2)c1,1.32%
5,COc1ccc(NC(=O)CN2CCN(S(=O)(=O)c3cccs3)CC2)cc1Cl,-3.12%
6,CSc1nnc(-c2ccccc2Cl)n1N,0.804%
7,Cc1cccc(CN2CCC(Oc3ccc(C(=O)N4CCCC4)cc3)CC2)n1,4.56%
8,O=C(CCl)Nc1cc(S(=O)(=O)N2CCCCCC2)ccc1Cl,8.42%
9,O=C1CC(c2ccccc2)CN1Cc1ccccc1 (stereo not shown),6.07%
10,CSc1ccc(/C=N/Nc2ccc(Cl)c(C(=O)O)c2)cc1,12.9%
11,CCOC(=O)c1c(-c2ccc(-c3ccccc3)cc2)csc1NC(=O)CCN1CCOCC1,13.8%
12,Cc1cc(C)c(S(=O)(=O)NC2CCN(Cc3ccccc3)CC2)c(C)c1.Cl,-5.94%
13,CC(C)NCC(O)COC1C2CC3CC(C2)CC1C3.Cl (stereo not shown),14.2%
14,CCC1CCCCN1CCCNC(=O)C1CCN(c2nnc(-n3cccc3)s2)CC1 (stereo not shown),-2.12%
15,CCOCCCNc1ncnc2c1[nH]c1ccccc12,8.38%
16,O=C(CN(C(=O)c1csnn1)c1ccc(F)cc1)NCc1ccc2c(c1)OCO2,13.3%
17,Cc1cccc(NC(=O)CCCSc2nc3ccccc3[nH]2)c1,8.21%
18,COc1ccc(S(=O)(=O)Cc2ccc(C(=O)NC3CCCCC3)o2)cc1,7.73%
19,COc1cc(-c2noc(CCCC(=O)Nc3cccnc3)n2)cc(OC)c1OC,7.45%
20,Cc1ccc(C(=O)Nc2cccc(C(=O)O)c2)cc1S(=O)(=O)N1CCCCC1,3.91%
21,CCCc1nnc(N2C(=O)c3cccc4cccc(c34)C2=O)s1,8.81%
22,CCn1c(CNC(=O)C(C)(C)C)nc2ccccc21,1.97%
23,O=C(N=C1SC2CS(=O)(=O)CC2N1c1ccccc1Cl)C1CCCO1 (stereo not shown),23.8%
24,O=C(c1ccccc1)C(C(=O)N1CCCCC1)n1ccccc1=O (stereo not shown),1.68%
25,CC[C@H]1OC(=O)[C@H](C)[C@@H](O[C@H]2C[C@@](C)(OC)[C@@H](O)[C@H](C)O2)[C@H](C)[C@@H](O[C@@H]2O[C@H](C)C[C@H](N(C)C)[C@H]2O)[C@](C)(O)C[C@@H](C)C(=NOCOCCOC)[C@H](C)[C@@H](O)[C@]1(C)O,13.8%
